# Assay results as given in PubChem BioAssay (Tox21).
# Several values for one entry are separate records, joined by “and”; a condition that tells them apart may be missing. Equal values may be shown once. The inconclusive results got no clear call from the source; some entries with a clear call stand among them for comparison. For some assays here: Where the call is inconclusive, the potency comes from a doubtful curve fit. Some structures have more than one record in an assay (separate samples or runs), and their calls can disagree. Activity calls are given as the source filed them. Unless noted, the call rests on the fitted dose curve; in most records, active means well fitted curve in the direction sought with a large enough effect in the repeat runs; inconclusive means weak or mixed curves; inactive means no such curve, though single readings can be large; an effect the other way counts as inactive or inconclusive.
# Tests used:
# [1] = qHTS assay to identify small molecule antagonists of the estrogen related receptor (ERR) signaling pathway from Tox21 library - cell viability counter screen (AID 1224834); further: nearly all actives have a fitted effect of over 30% in size; on viability change, negative = cytotoxic: on the % scale 0 is the no-effect control and ±100 the full control effect
# Summary of the method: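 After 17.5 h of compound exposure at 37 C, ERR cells are incubated with CellTiter-Fluor for 30 min and fluorescence intensity serves as the viability measure.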
# [2] = qHTS assay to identify small molecule antagonists of the constitutive androstane receptor (CAR) signaling pathway - cell viability counter screen (AID 1224837); further: nearly all actives have a fitted effect of over 45% in size
# Summary of the method: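 Counter screen run in HepG2-CYP2B6-hCAR cells: 4 hr settle, compound titration (15 concentrations) with 50 nM CITCO, 23 hr at 37 C/5% CO2, CellTiter-Fluor fluorescence.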
# [3] = qHTS assay to identify small molecule antagonists of the estrogen related receptor signaling pathway with the pleiotropic PPARgamma coactivator (PGC) from Tox21 10K library - cell viability counter screen (AID 1224840; active means well fitted cell-killing curve with a large enough effect in the repeat runs, not every such curve was filed as active; inconclusive means weak or mixed curves, or effect the other way; inactive means no such curve, though single readings can be large or run the other way; further: nearly all actives have a fitted effect of over 40% in size)
# Summary of the method: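 Following seeding of 2,000 PGC/ERR cells/well and 6 hours' incubation, test compounds were delivered in DMSO. The plates then sat 17.5 hours at 37 C before a fluorogenic live-cell protease reagent (CellTiter-Fluor) was read after 30 min.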
# [4] = biological target: Thyrotropin receptor (Homo sapiens) (UniProt P16473); test: qHTS assay to identify small molecule agonists of the thyroid stimulating hormone receptor (TSHR) signaling pathway (AID 1224843; calls by dose curve; further: nearly all actives have a fitted effect of over 45% in size; on activation: on the % scale 0 is the no-effect control and ±100 the full control effect); details: TSHR-HEK293 cells, cAMP HTRF, agonist mode, 30 min; activation: at 92.4 µM (top of the series) unless noted
# UniProt P16473, sequence (P16473 whole entry, looked up): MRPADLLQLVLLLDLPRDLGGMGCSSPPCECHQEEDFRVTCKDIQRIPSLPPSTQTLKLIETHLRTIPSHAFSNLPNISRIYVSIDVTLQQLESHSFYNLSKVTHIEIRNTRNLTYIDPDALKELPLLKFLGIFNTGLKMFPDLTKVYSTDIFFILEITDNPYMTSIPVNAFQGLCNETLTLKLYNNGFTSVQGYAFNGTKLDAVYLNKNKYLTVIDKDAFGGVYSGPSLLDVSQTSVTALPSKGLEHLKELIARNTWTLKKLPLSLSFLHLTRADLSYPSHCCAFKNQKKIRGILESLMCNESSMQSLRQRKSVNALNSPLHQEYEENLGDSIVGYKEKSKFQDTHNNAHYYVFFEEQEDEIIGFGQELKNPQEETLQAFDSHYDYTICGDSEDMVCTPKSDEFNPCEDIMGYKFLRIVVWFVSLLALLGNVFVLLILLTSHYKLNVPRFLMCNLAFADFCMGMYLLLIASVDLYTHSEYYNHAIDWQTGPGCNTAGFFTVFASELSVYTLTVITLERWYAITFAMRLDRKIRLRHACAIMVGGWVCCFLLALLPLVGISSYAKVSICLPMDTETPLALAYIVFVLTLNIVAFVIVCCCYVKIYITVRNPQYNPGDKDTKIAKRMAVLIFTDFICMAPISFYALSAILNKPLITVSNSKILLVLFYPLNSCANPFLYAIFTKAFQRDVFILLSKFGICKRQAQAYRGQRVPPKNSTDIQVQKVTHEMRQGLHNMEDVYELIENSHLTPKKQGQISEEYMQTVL
# Summary of the method: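 Cell line HEK293 with TSHR; density 800/well. Exposure 30 min RT. Readout HTRF cAMP (cAMP-d2/anti-cAMP-cryptate), 1 h RT before reading.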
# [5] = qHTS assay to identify small molecule agonists of the hypoxia (HIF-1) signaling pathway - cell viability counter screen (AID 1224844; calls by dose curve; further: nearly all actives have a fitted effect of over 50% in size)
# Summary of the method: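 Cells (HRE-bla ME-180, 2,000 per well) sat 5 hrs at 37C, got compound for 17 hrs, were read for CCF4-AM FRET, and were finally lysed with CellTiter-Glo for a 30 min room-temperature luminescence read.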
# [6] = qHTS assay to identify small molecule agonists of H2AX - cell viability counter screen (AID 1224847; calls by dose curve; further: nearly all actives have a fitted effect of over 30% in size)
# Summary of the method: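 Cytotoxicity counter screen in wild-type CHO-K1 cells: a 3 hr compound treatment at 37C across 15 concentrations, followed by CellTiter-Glo luminescence to gauge viable cells.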
# [7] = qHTS assay to identify small molecule antagonists of the estrogen related receptor (ERR) signaling pathway from Tox21 library (AID 1224848); further: nearly all actives have a fitted effect of over 50% in size
# Summary of the method: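 Screening used an ERR reporter line supplied by NTP, exposed for 18 h at 37 C to library compounds delivered in DMSO. Signal was luciferase luminescence developed with ONE-Glo at room temperature for 30 min.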
# [8] = qHTS assay to identify small molecule agonists of H2AX (AID 1224845; active means well fitted activation curve with a large enough effect in the signal ratio in the repeat runs, not every such curve was filed as active; inconclusive means weak or mixed curves; the % refers to the signal ratio; on activation (H2AX phosphorylation): on the % scale 0 is the no-effect control and ±100 the full control effect); details: CHO-K1 phospho-H2AX Ser139 HTRF, 3 h; activation (H2AX phosphorylation): at 154 µM (top of the series) unless noted
# Summary of the method: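 Wild-type CHO-K1 cells plated overnight, then exposed 3 hr at 37C to compounds at 15 concentrations (0.76% DMSO). Lysed, then HTRF anti-pH2AX(S139)-cryptate/anti-H2AX-d2 detection after 24 hr at room temperature; emissions 665 and 620 nm.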
# [9] = biological target: Nuclear receptor subfamily 1 group I member 3 (Homo sapiens) (UniProt Q14994); test: qHTS assay to identify small molecule agonists of the constitutive androstane receptor (CAR) signaling pathway (AID 1224839); further: nearly all actives have a fitted effect of over 15% in size;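 on activation: HepG2 cells stably carrying human CAR and a CYP2B6 luciferase reporter; on the % scale 0 is the no-effect control and ±100 the full control effect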
# UniProt Q14994, sequence (Q14994 whole entry, looked up): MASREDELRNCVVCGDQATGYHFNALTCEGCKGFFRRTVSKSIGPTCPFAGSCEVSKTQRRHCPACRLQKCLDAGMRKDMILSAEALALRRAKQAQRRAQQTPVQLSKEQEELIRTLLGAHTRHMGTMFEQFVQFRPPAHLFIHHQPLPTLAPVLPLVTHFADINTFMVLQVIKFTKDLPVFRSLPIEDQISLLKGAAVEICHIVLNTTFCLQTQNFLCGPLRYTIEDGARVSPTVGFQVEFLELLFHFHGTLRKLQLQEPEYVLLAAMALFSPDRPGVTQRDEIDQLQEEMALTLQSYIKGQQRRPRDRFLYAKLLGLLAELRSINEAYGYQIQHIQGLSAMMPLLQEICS
# Summary of the method: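 Cells were plated and incubated 4 hrs, then dosed with compounds at 15 concentrations. PK11195 was added to 0.75 uM final. After 24 hrs at 37 C, luciferase luminescence was measured.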
# [10] = biological target: Nuclear receptor subfamily 1 group I member 3 (Homo sapiens) (UniProt Q14994); test: qHTS assay to identify small molecule antagonists of the constitutive androstane receptor (CAR) signaling pathway (AID 1224838);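 further: HepG2 cells stably expressing hCAR with CYP2B6 luciferase reporter stimulated by CITCO; nearly all actives have a fitted effect of over 40% in size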
# Summary of the method: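 Cell line: HepG2 double-stable for hCAR and CYP2B6-2.2kb reporter. Agonist: CITCO, 50 nM final. Compounds: 15 concentrations, 24 h, 37 C. Detection: ONE-Glo luminescence.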
# [11] = qHTS RealTime-Glo MT Cell Viability Assay in HepG2 cells - 24 hour (AID 1224867); further: nearly all actives have a fitted effect of over 50% in size
# Summary of the method: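 qHTS, HepG2, 600 cells/well, RealTime-Glo (NanoLuc + prosubstrate) added with cells; 5 h preincubation; DMSO compound addition; 37 C; luminescence at 0/8/16/24/32/40 h.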
# [12] = qHTS RealTime-Glo MT Cell Viability Assay in HEK293 cells - 32 hour (AID 1224868); further: nearly all actives have a fitted effect of over 50% in size
# Summary of the method: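 Assay medium contained NanoLuc luciferase plus cell-permeant prosubstrate, added with HEK293 cells at 600 cells/well. After 5 h at 37 C/5% CO2 compounds were added; plates stayed at 37 C for 40 h with serial luminescence reads.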
# Potency means the concentration at half of the fitted maximal effect; tags describe the fitted curve by direction and shape or compound fluorescence and quenching.
smiles,measurement,setting,value
O=P(OC(CCl)CCl)(OC(CCl)CCl)OC(CCl)CCl,Potency,[1],"inconclusive: 60.8 µM [cytotoxic] and inconclusive: 54.5 µM [cytotoxic, partial curve]"
same,Potency,[2],"inconclusive: 68.2 µM [cytotoxic, partial curve, poor fit]"
same,Potency,[3],inconclusive: 61.1 µM [cytotoxic]
same,activation,[4],inconclusive: 3.76% and inconclusive: -1.62%
same,Potency,[5],"inconclusive: 38.7 µM [cytotoxic, partial curve] and inconclusive: 49 µM [cytotoxic]"
same,Potency,[6],"inconclusive: 126 µM [cytotoxic, single point]"
same,Potency,[7],active: 48.3 µM and active: 54.5 µM
CC1=NN(c2cc(Cl)c(S(=O)(=O)O)cc2Cl)C(=O)C1N=Nc1ccc(S(=O)(=O)O)cc1 (stereo unspecified),Potency,[1],"inconclusive: 27.3 µM [cytotoxic, partial curve]"
same,Potency,[2],"inconclusive: 43.3 µM [cytotoxic, partial curve, poor fit]"
same,Potency,[3],"inconclusive: 54.5 µM [cytotoxic, partial curve]"
same,Potency,[8],"inconclusive: 113 µM [falling, single point]"
COC(=O)/C=C/C(C)=C\C=C\C(C)=C\C=C\C=C(C)\C=C\C=C(C)\C=C\C(=O)O,Potency,[1],"inconclusive: 68.6 µM [cytotoxic, single point]"
same,Potency,[9],"inconclusive: 34.4 µM [activator, partial curve]"
CCCCNC(=O)NCCCC,Potency,[1],inactive
same,Potency,[9],inactive
same,Potency,[8],inactive
NC(Cc1ccc(Cl)cc1)C(=O)O (stereo unspecified),"viability change, negative = cytotoxic",[1],inactive: -4.51% [at 0.349 µM]
same,activation,[9],inactive: 0.949% [at 0.349 µM]
C#C[C@]1(O)CC[C@H]2[C@@H]3CCC4=CC(=O)CC[C@@H]4[C@H]3CC[C@@]21C,Potency,[1],"inconclusive: 68.6 µM [cytotoxic, partial curve, poor fit] and inactive"
same,Potency,[10],"inconclusive: 2.66 µM [inhibitor, full curve]"
same,Potency,[3],"inconclusive: 61.1 µM [cytotoxic, partial curve, poor fit]"
same,Potency,[4],"inconclusive: 48.6 µM [activator, partial curve]"
same,Potency,[5],"inconclusive: 15.1 µM [cytotoxic, partial curve, poor fit]"
same,Potency,[8],active: 28.4 µM and active: 19.6 µM
COc1cc(N)ccc1C,Potency,[1],"inconclusive: 19.1 µM [cytotoxic, full curve]"
same,Potency,[9],"inconclusive: 53.9 µM [activator, partial curve]"
N#C/C(=C1/SC[C@@H](c2ccc(Cl)cc2Cl)S1)n1ccnc1,Potency,[1],"inconclusive: 26.6 µM [cytotoxic, partial curve]"
same,Potency,[9],"inconclusive: 29.8 µM [activator, partial curve]"
CN(C)C(=O)C(CCN1CCC(O)(c2ccc(Cl)cc2)CC1)(c1ccccc1)c1ccccc1,Potency,[1],active: 26.6 µM
same,Potency,[2],"inconclusive: 26.6 µM [cytotoxic, partial curve]"
same,Potency,[3],inconclusive: 33.5 µM [cytotoxic]
same,Potency,[5],"inconclusive: 16.9 µM [cytotoxic, partial curve]"
same,Potency,[11],"inconclusive: 23.9 µM [falling, partial curve]"
Cn1ccc2cc3c(cc21)CCN3C(=O)Nc1cccnc1,Potency,[1],"inconclusive: 0.082 µM [cytotoxic, single point]"
same,Potency,[9],active: 1.64 µM
same,Potency,[8],"inconclusive: 30.2 µM [falling, partial curve, poor fit]"
Nc1ccc(Oc2cccc(Oc3ccc(N)cc3)c2)cc1,Potency,[1],"inconclusive: 54.5 µM [cytotoxic, partial curve, poor fit]"
same,Potency,[10],active: 1.37 µM
same,Potency,[8],active: 113 µM
same,Potency,[6],"inconclusive: 127 µM [cytotoxic, single point]"
same,Potency,[7],active: 4.33 µM
same,Potency,[12],"inconclusive: 19.5 µM [cytotoxic, partial curve, poor fit]"
CN(C)C(=O)NC1(c2ccccc2)CCN(CCC[C@]2(c3ccc(Cl)c(Cl)c3)CCCN(C(=O)c3ccccc3)C2)CC1,Potency,[1],"inconclusive: 16.4 µM [cytotoxic, partial curve]"
same,Potency,[2],"inconclusive: 14.6 µM [cytotoxic, partial curve]"
same,Potency,[3],"inconclusive: 13 µM [cytotoxic, partial curve]"
same,Potency,[12],"inconclusive: 11.7 µM [cytotoxic, partial curve, poor fit]"
F[B-](F)(F)F,Potency,[1],"inconclusive: 69.6 µM [cytotoxic, single point]"
same,Potency,[2],"inconclusive: 69.6 µM [cytotoxic, single point]"
same,Potency,[3],"inconclusive: 69.6 µM [cytotoxic, single point]"
same,activation,[4],inconclusive: -23.2%
same,Potency,[5],"inconclusive: 55.4 µM [cytotoxic, single point] and inconclusive: 55.7 µM [cytotoxic, single point]"
same,Potency,[8],active: 115 µM
Cc1cn([C@H]2C=C[C@@H](CO)O2)c(=O)[nH]c1=O,Potency,[1],"inconclusive: 60.6 µM [rising, partial curve, poor fit]"
same,Potency,[10],"inconclusive: 15 µM [inhibitor, partial curve]"
CCCCCCCOC(=O)c1ccccc1C(=O)OCCCCCCC,Potency,[1],inactive
same,Potency,[9],"inconclusive: 15.4 µM [activator, partial curve]"
